Data published in the supplement of paper PMC9588766.
Counter-ions that a name gives are not always drawn. ± gives the standard deviation of the averaged measurements. The full ranking holds about 2,000 compounds; the median of “cell viability relative to DMSO control (compound alone)” is about 0.98, and the lowest 2% start at about 0.23. Some of the results follow.

Test system: PDC-DUC18828
Test: cell viability relative to DMSO control (compound alone) (fraction); PDC-DUC18828 is a patient-derived cholangiocarcinoma cell line; higher = less growth inhibition
Conditions: 1 µM; 72 h
Description: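 Selleck Bioactive library screen in the patient-derived FGFR2-G3BP2 fusion-positive ICC cell line PDC-DUC18828 (500 cells/well). Each compound was tested at 1 uM alone, in triplicate, for 72 h. Viability was read by CellTiter-Glo and normalised to plate DMSO controls.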

| Structure (SMILES) | cell viability |
| --- | --- |
| Cn1c(Nc2ccc(C(F)(F)F)cc2)nc2cc(Oc3ccnc(-c4ncc(C(F)(F)F)[nH]4)c3)ccc21 | 0.85 ± 0.043 |
| COC(=O)C1=C(C)NC(C)=C(C(=O)OC(C)C)C1c1cccc2nonc12 (stereo not drawn) [Isradipine] | 1.01 ± 0.056 |
| CC1(C)CCC2=C(O1)c1ccccc1C(=O)C2=O [Beta-Lapachone] | 0.79 ± 0.054 |
| CC(=O)OCC[N+](C)(C)C [Acetylcholine Chloride] | 0.945 ± 0.021 |
| S=C(NCc1ccc2c(c1)OCO2)N1CCN(c2ncnc3c2oc2ccccc23)CC1 [Amuvatinib (MP-470)] | 0.916 ± 0.033 |
| OCCN1C[C@H](O)[C@@H](O)[C@H](O)[C@H]1CO [Miglitol] | 1.04 ± 0.031 |
| CC(C)C(=O)Nc1ccc([N+](=O)[O-])c(C(F)(F)F)c1 [Flutamide] | 1.046 ± 0.0086 |
| CC(=O)Oc1cc2c(s1)CCN(C(C(=O)C1CC1)c1ccccc1F)C2 (stereo not drawn) [Prasugrel] | 1.01 ± 0.086 |
| Cn1cnc([N+](=O)[O-])c1Sc1ncnc2[nH]cnc12 [Azathioprine] | 0.964 ± 0.038 |
| CC(C)CN(C[C@@H](O)[C@H](Cc1ccccc1)NC(=O)O[C@H]1CO[C@H]2OCC[C@H]21)S(=O)(=O)c1ccc(N)cc1 [Darunavir Ethanolate] | 1 ± 0.08 |
| COc1cc(/C=C/C(=O)CC(=O)/C=C/c2ccc(O)c(OC)c2)ccc1O [Curcumin] | 0.968 ± 0.031 |
| Cc1cc2c(F)c(Oc3ncnn4cc(OC[C@@H](C)O)c(C)c34)ccc2[nH]1 | 1.01 ± 0.044 |
| O=C(O)CSCC(=O)NC1CCSC1=O (stereo not drawn) [Erdosteine] | 0.961 ± 0.025 |
| O=c1[nH]cnc2[nH]ncc12 [Allopurinol Sodium] | 1.06 ± 0.039 |
| CN1CCN(C2CCN(C(=O)Nc3cc(Oc4ccc(NC(=O)C5(C(=O)Nc6ccc(F)cc6)CC5)c(F)c4)ccn3)CC2)CC1 [Golvatinib (E7050)] | 0.886 ± 0.048 |
| C[N+](C)(C)CCO.[Cl-] [Choline Chloride] | 1.05 ± 0.049 |
| CCOC(=O)[C@H](CCc1ccccc1)N[C@@H](C)C(=O)N1Cc2cc(OC)c(OC)cc2C[C@H]1C(=O)O [Moexipril HCl] | 1.05 ± 0.062 |
| Clc1ccc(Nc2nnc(Cc3ccncc3)c3ccccc23)cc1 [Vatalanib (PTK787) 2HCl] | 0.97 ± 0.04 |
| Cn1cc(-c2ccc3nnc(Sc4ccc5ncccc5c4)n3n2)cn1 | 1.07 ± 0.046 |
| O=C1NC(=O)/C(=C/c2cccc(C(F)(F)F)c2)S1 | 1 ± 0.018 |
| Cc1cc(O)c2c(c1)C(=O)c1cc(O)cc(O)c1C2=O [Emodin] | 1.04 ± 0.025 |

| Structure (SMILES) | cell viability |
| --- | --- |
| Fc1ccc([C@@H]2CCNC[C@H]2COc2ccc3c(c2)OCO3)cc1 [Paroxetine HCl] | 0.853 ± 0.061 |
| Nc1nc(O)c2ncn(CCC(CO)CO)c2n1 [Penciclovir] | 0.966 ± 0.045 |
| O=c1[nH]cnc2c1ncn2[C@H]1CC[C@@H](CO)O1 [Didanosine] | 1.03 ± 0.04 |
| CN(C/C=C/C#CC(C)(C)C)Cc1cccc2ccccc12 [Terbinafine HCl] | 0.972 ± 0.019 |
| CN(C/C=C/C#CC(C)(C)C)Cc1cccc2ccccc12 [Terbinafine] | 1.02 ± 0.064 |
| Nc1nc(Nc2ccc3c(c2)CCC(N2CCCC2)CC3)nn1-c1cc2c(nn1)-c1ccccc1CCC2 (stereo not drawn) | 0.8 ± 0.048 |
| CCCC(=O)OCOC(=O)C1=C(C)NC(C)=C(C(=O)OC)C1c1cccc(Cl)c1Cl (stereo not drawn) [Clevidipine Butyrate] | 0.983 ± 0.049 |
| C[C@H]1COc2c(N3CCN(C)CC3)c(F)cc3c(=O)c(C(=O)O)cn1c23 [Levofloxacin] | 1.03 ± 0.075 |
| NC(CO)C(=O)NNCc1ccc(O)c(O)c1O (stereo not drawn) [Benserazide HCl] | 0.949 ± 0.049 |
| CCCCC[C@H](O)/C=C/[C@H]1[C@H](O)CC(=O)[C@@H]1CCCCCCC(=O)O [Alprostadil] | 1.03 ± 0.02 |
| NC1=N[C@@](c2cccc(-c3cncnc3)c2)(c2ccnc(C(F)F)c2)c2cccc(F)c21 | 0.92 ± 0.017 |
| CC[C@@H]([C@H](C)O)n1ncn(-c2ccc(N3CCN(c4ccc(OC[C@@H]5CO[C@@](Cn6cncn6)(c6ccc(F)cc6F)C5)cc4)CC3)cc2)c1=O [Posaconazole] | 0.935 ± 0.07 |
| O=C(O)c1ccccc1 [Benzoic Acid] | 1.03 ± 0.05 |
| CC(C)[C@H](N)C(=O)OCC(CO)OCn1cnc2c(=O)[nH]c(N)nc21 (stereo partly drawn) [Valganciclovir HCl] | 1.02 ± 0.025 |
| O=C(c1ccc(OCCCc2c[nH]cn2)cc1)C1CC1 [Ciproxifan] | 1.03 ± 0.056 |
| CCOc1ccc(NC(C)=O)cc1 [Phenacetin] | 1.04 ± 0.032 |
| CN1CCC[C@@H]1CCO[C@](C)(c1ccccc1)c1ccc(Cl)cc1 [Clemastine Fumarate] | 1 ± 0.026 |
| CN1CCN(c2nc(C3=C(c4c[nH]c5ccccc45)C(=O)NC3=O)c3ccccc3n2)CC1 [Sotrastaurin] | 1.06 ± 0.043 |
| COc1cc2ncnc(Nc3ccc(F)c(Cl)c3)c2cc1OCCCN1CCOCC1 [Gefitinib (ZD1839)] | 0.978 ± 0.02 |
| CC(C(=O)O)c1ccc(C(=O)c2cccs2)cc1 (stereo not drawn) [Suprofen] | 1.03 ± 0.043 |
| CN(C)CCCCC(=O)Nc1ccc(NC(=S)NC(=O)c2ccc(C(C)(C)C)cc2)cc1 [Tenovin-6] | 0.919 ± 0.049 |

| Structure (SMILES) | cell viability |
| --- | --- |
| C=C(c1ccc(C(=O)O)cc1)c1cc2c(cc1C)C(C)(C)CCC2(C)C [Bexarotene] | 1.07 ± 0.078 |
| CC[N+](CC)(CC)CCOc1cccc(OCC[N+](CC)(CC)CC)c1OCC[N+](CC)(CC)CC [Gallamine Triethiodide] | 1 ± 0.048 |
| CCN(CCCOc1ccc2c(Nc3cc(CC(=O)Nc4cccc(F)c4)[nH]n3)ncnc2c1)CCOP(=O)(O)O [Barasertib (AZD1152-HQPA)] | 0.803 ± 0.06 |
| Cc1ccccc1N=Nc1ccc(NC(=O)c2ccnn2C)c(C)c1 | 0.99 ± 0.016 |
| Cc1c[nH]c(/C=C2\C(=O)Nc3ccccc32)c1CCC(=O)O | 0.934 ± 0.021 |
| CCc1oc2ccccc2c1C(=O)c1cc(Br)c(O)c(Br)c1 [Benzbromarone] | 1.02 ± 0.049 |
| CC/C(=C(\c1ccccc1)c1ccc(OCCN(C)C)cc1)c1ccccc1 [Tamoxifen Citrate] | 0.945 ± 0.034 |
| Cn1cc(-c2ccc(S(=O)(=O)n3ccc(/C=C/C(=O)Nc4ccccc4N)c3)cc2)cn1 | 0.496 ± 0.03 |
| O=c1c(O)c(-c2ccc(O)c(O)c2)oc2cc(O)cc(O)c12 [Quercetin Dihydrate] | 0.936 ± 0.061 |
| O=c1c(O)c(-c2ccc(O)c(O)c2)oc2cc(O)cc(O)c12 [Quercetin] | 0.957 ± 0.034 |
| COc1ccc(C2=N[C@H](c3ccc(Cl)cc3)[C@H](c3ccc(Cl)cc3)N2C(=O)N2CCNC(=O)C2)c(OC(C)C)c1 [Nutlin-3b] | 0.986 ± 0.062 |
| Cc1cnc(C(=O)O)c[n+]1[O-] [Acipimox] | 0.917 ± 0.019 |
| O=C(c1cncc(Br)c1)N1CCC(N2CCCC2)CC1 | 0.94 ± 0.095 |
| O=C(Nc1ccc([N+](=O)[O-])cc1O)Nc1ccccc1Br | 0.559 ± 0.035 |
| O=C(O)c1cc(I)ccc1NC(=O)[C@H](Cc1ccccc1)NCc1ccccc1 | 1.04 ± 0.061 |
| CCN1CCN(Cc2ccc(Nc3ncc(F)c(-c4cc(F)c5nc(C)n(C(C)C)c5c4)n3)nc2)CC1 | 0.684 ± 0.012 |
| COCCc1ccc(OCC(O)CNC(C)C)cc1 (stereo not drawn) [Metoprolol Tartrate] | 0.895 ± 0.066 |
| COc1ccc(CN2CCN(C(c3ccc(F)cc3)c3ccc(F)cc3)CC2)c(OC)c1OC [Lomerizine HCl] | 1.02 ± 0.055 |
| CC(C)Cc1ccc(C(C)C(=O)O)cc1 (stereo not drawn) [Ibuprofen] | 1.08 ± 0.034 |
| Nc1ncnc2c1C(=O)N(c1ccc([C@H]3CC[C@H](CC(=O)O)CC3)cc1)CCO2 | 0.9737 ± 0.0084 |
| CN1CCC(NC(=O)c2cc(-c3c(O)cc(O)cc3Oc3ccc([N+](=O)[O-])cc3)on2)CC1 | 0.343 ± 0.029 |

| Structure (SMILES) | cell viability |
| --- | --- |
| Cc1cnc(C(=O)NCCc2ccc(S(=O)(=O)NC(=O)NC3CCCCC3)cc2)cn1 [Glipizide] | 1.08 ± 0.046 |
| Cc1cc(-c2ncc(CC(=O)Nc3ccc(-c4cnccn4)cn3)cc2C)ccn1 | 1.01 ± 0.018 |
| O=C1[C@H](CC[C@H](O)c2ccc(F)cc2)[C@@H](c2ccc(O)cc2)N1c1ccc(F)cc1 [Ezetimibe] | 1.07 ± 0.029 |
| c1cc(-c2cnn3cc(-c4ccc(OCCN5CCCCC5)cc4)cnc23)ccn1 [Dorsomorphin (Compound C)] | 0.972 ± 0.05 |
| COc1ncc(-c2ccc3nccc(-c4ccnnc4)c3c2)cc1NS(=O)(=O)c1ccc(F)cc1F | 0.272 ± 0.0043 |
| COc1cc2ncnc(Oc3ccc(CC(=O)Nc4cnn(C(C)C)c4)cc3)c2cc1OC | 0.913 ± 0.048 |
| CN1CCC(=C2c3ccccc3CCc3sccc32)CC1 [Pizotifen Malate] | 0.995 ± 0.073 |
| CCN(CC)CCOc1ccc(C(=C(Cl)c2ccccc2)c2ccccc2)cc1 [Clomifene citrate] | 0.968 ± 0.021 |
| CCCCCOC(=O)Nc1nc(=O)n([C@@H]2O[C@H](C)[C@@H](O)[C@H]2O)cc1F [Capecitabine] | 1.06 ± 0.022 |
| CCCCNc1ccc(C(=O)OCCN(C)C)cc1 [Tetracaine HCl] | 0.971 ± 0.02 |
| O=C1CCc2ccc(OCCCCN3CCN(c4cccc(Cl)c4Cl)CC3)cc2N1 [Aripiprazole] | 1.09 ± 0.021 |
| COc1c2ccoc2cc2oc(=O)ccc12 [Bergapten] | 0.955 ± 0.026 |
| CCCCCCCCCCCC1=C(O)C(=O)C=C(O)C1=O [Embelin] | 0.92 ± 0.034 |
| CNCc1cc(-c2ccccc2F)n(S(=O)(=O)c2cccnc2)c1 | 1.04 ± 0.07 |
| Cc1ccccc1C(OCCN(C)C)c1ccccc1 (stereo not drawn) [Orphenadrine Citrate] | 0.971 ± 0.063 |
| Cc1nn(C)c2c1C(c1ccc(C(F)(F)F)cc1)C(C#N)=C(N)O2 (stereo not drawn) | 0.942 ± 0.0098 |
| O=C1C(O)=C([C@H]2CC[C@H](c3ccc(Cl)cc3)CC2)C(=O)c2ccccc21 [Atovaquone] | 1.05 ± 0.038 |
| OC[C@H]1O[C@@H](c2ccc(Cl)c(Cc3ccc(O[C@H]4CCOC4)cc3)c2)[C@H](O)[C@@H](O)[C@@H]1O | 1.03 ± 0.025 |
| Cc1nc(C#Cc2ccnc(Cl)c2)c(C)n1-c1ccc(OC(F)(F)F)cc1 | 0.906 ± 0.062 |
| CN(C)c1cccc(-c2c3c(=O)n(-c4ccccc4Cl)[nH]c3cc(=O)n2C)c1 | 0.952 ± 0.033 |
